Source: the supplement of paper PMC8821664
Counter-ions that a name gives are not always drawn. This is one part of the list. Repeats are few or missing, and single values can be far off.

Each molecule was assayed on Beas-2B AQP5-HiBiT reporter cells (assay: AQP5-HiBiT luminescence relative to vehicle (ratio to vehicle); higher = higher AQP5-HiBiT protein abundance). Conditions: 10 µM; 18 h.
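Also: monoclonal Beas-2B line stably carrying CMV promoter-driven AQP5-HiBiT, 5,000 cells per well in 384-well plates, lytic HiBiT plus LgBiT NanoLuc luminescence, FDA-approved drug library screen.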

| Structure (SMILES) | AQP5-HiBiT luminescence |
| --- | --- |
| CC1(C)S[C@@H]2[C@H](NC(=O)COc3ccccc3)C(=O)N2[C@H]1C(=O)O [Penicillin V potassium salt] | 0.952 |
| O=c1[nH]c(=O)n([C@H]2C[C@H](O)[C@@H](CO)O2)cc1C(F)(F)F [Trifluridine] | 0.911 |
| CCC(C)(C)C(=O)O[C@H]1C[C@@H](C)C=C2C=C[C@H](C)[C@H](CC[C@@H]3C[C@@H](O)CC(=O)O3)[C@H]21 [Simvastatin] | 1.11 |
| CN(C)c1ccc(C(=C2C=CC(=[N+](C)C)C=C2)c2ccc(N(C)C)cc2)cc1 [Crystal Violet] | 5.21 |
| NNC(=O)c1ccncc1 [Isoniazid] | 0.809 |
| CCN(CC)CC(=O)Nc1c(C)cccc1C [Lidocaine hydrochloride] | 0.956 |
| Cc1ccc(Sc2ccccc2N2CCNCC2)c(C)c1 | 1.17 |
| CC1(C)S[C@@H]2[C@H](NC(=O)Cc3ccccc3)C(=O)N2[C@H]1C(=O)O [Penicillin G sodium salt] | 0.825 |
| CCCc1nc2c(C)cc(-c3nc4ccccc4n3C)cc2n1Cc1ccc(-c2ccccc2C(=O)O)cc1 [Telmisartan] | 1.27 |
| CCCCNC(=O)NS(=O)(=O)c1ccc(C)cc1 [Tolbutamide] | 1.24 |
| C=C(c1ccc(C(=O)O)cc1)c1cc2c(cc1C)C(C)(C)CCC2(C)C [Bexarotene] | 1.32 |
| C#Cc1cccc(Nc2ncnc3cc(OCCOC)c(OCCOC)cc23)c1 [Erlotinib] | 0.361 |
| COc1ccc(C(=O)c2ccccc2)c(O)c1 [Oxybenzone] | 1.13 |
| CN[C@H]1CC[C@@H](c2ccc(Cl)c(Cl)c2)c2ccccc21 [Sertraline hydrochloride] | 0.918 |
| Cc1cccc(Nc2ccncc2S(=O)(=O)NC(=O)NC(C)C)c1 [Torasemide] | 0.831 |
| CN(C)[C@@H]1C(O)=C(C(N)=O)C(=O)[C@@]2(O)C(O)=C3C(=O)c4c(O)ccc(Cl)c4[C@@](C)(O)[C@H]3C[C@@H]12 [Chlortetracycline hydrochloride] | 0.756 |
| CC1=C(C/C=C(\C)CCC[C@H](C)CCC[C@H](C)CCCC(C)C)C(=O)c2ccccc2C1=O [Vitamin K1] | 1.06 |
| Cc1ccc(Sc2ccccc2N2CCNCC2)c(C)c1 [Vortioxetine] | 0.96 |
| COc1cc2nc(N3CCN(C(=O)C4CCCO4)CC3)nc(N)c2cc1OC (stereo not given) [Terazosin hydrochloride] | 1.39 |
| Cc1ccc(NC(=O)c2ccc(CN3CCN(C)CC3)cc2)cc1Nc1nccc(-c2cccnc2)n1 [Imatinib Mesylate (STI571)] | 1.5 |

| Structure (SMILES) | AQP5-HiBiT luminescence |
| --- | --- |
| C[Se]CC[C@H](N)C(=O)O [Selenomethionine] | 0.712 |
| CCCC1O[C@@H]2C[C@H]3[C@@H]4CCC5=CC(=O)C=C[C@]5(C)[C@H]4[C@@H](O)C[C@]3(C)[C@]2(C(=O)CO)O1 (stereo not given in full) [Budesonide] | 0.644 |
| CC[C@@H](CO)NCCN[C@@H](CC)CO [Ethambutol 2hydrochloride] | 0.828 |
| N[C@@H](CCC(=O)N[C@@H](CS)C(=O)NCC(=O)O)C(=O)O [Glutathione] | 0.9 |
| CC(CN1c2ccccc2Sc2ccccc21)N(C)C (stereo not given) [Promethazine] | 1.15 |
| COC(=O)/C=C/C(=O)OC [Dimethyl fumarate] | 1.1 |
| NC(=O)Cc1cccc(C(=O)c2ccccc2)c1N [Nepafenac] | 0.997 |
| CC1(C)S[C@@H]2[C@H](NC(=O)[C@H](N)c3ccccc3)C(=O)N2[C@H]1C(=O)O [Ampicillin] | 0.854 |
| C[C@@H]1C[C@H]2[C@@H]3C[C@H](F)C4=CC(=O)C=C[C@]4(C)[C@@]3(F)[C@@H](O)C[C@]2(C)[C@@]1(O)C(=O)CO [Flumethasone] | 0.641 |
| O=c1[nH]cc(F)c(=O)[nH]1 [Fluorouracil (5-Fluoracil, 5-FU)] | 0.716 |
| CCCCCCCCCC(=O)N[C@@H](Cc1c[nH]c2ccccc12)C(=O)N[C@H](CC(N)=O)C(=O)N[C@@H](CC(=O)O)C(=O)N[C@@H]1C(=O)NCC(=O)N[C@@H](CCCN)C(=O)N[C@@H](CC(=O)O)C(=O)N[C@H](C)C(=O)N[C@@H](CC(=O)O)C(=O)NCC(=O)N[C@H](CO)C(=O)N[C@@H]([C@H](C)CC(=O)O)C(=O)N[C@@H](CC(=O)c2ccccc2N)C(=O)O[C@@H]1C [Daptomycin] | 1.4 |
| O=C1CCc2cc(OCCCCc3nnnn3C3CCCCC3)ccc2N1 [Cilostazol] | 0.983 |
| COc1ccc([C@@H]2Sc3ccccc3N(CCN(C)C)C(=O)[C@@H]2OC(C)=O)cc1 [Diltiazem hydrochloride] | 0.981 |
| C[C@@H](Oc1cc(-c2cnn(C3CCNCC3)c2)cnc1N)c1c(Cl)ccc(F)c1Cl | 2.61 |
| Nc1ncnc2c1ncn2[C@@H]1O[C@H](CO)[C@@H](O)[C@H]1O [Adenosine] | 0.774 |
| Nc1ccn([C@@H]2CS[C@H](CO)O2)c(=O)n1 [Lamivudine] | 0.71 |
| CCN(CC)CC(=O)Nc1c(C)cccc1C [Xylocaine] | 0.829 |
| COC1=CC(=O)C[C@@H](C)[C@]12Oc1c(Cl)c(OC)cc(OC)c1C2=O [Griseofulvin] | 1.08 |
| CC(C)(C)C(=O)OCOP(=O)(COCCn1cnc2c(N)ncnc21)OCOC(=O)C(C)(C)C [Adefovir dipivoxil] | 1.05 |
| C[C@H](O)C(=O)Nc1c(I)c(C(=O)NC(CO)CO)c(I)c(C(=O)NC(CO)CO)c1I [Iopamidol] | 0.989 |
